Assay results taken from PubChem BioAssay AID504937 (National Center for Advancing Translational Sciences (NCATS), 2011).
In all, about 340,000 compounds went through this assay and about 20 (0.006%) were called active. This list was built around the results that the source calls inconclusive (neither active nor inactive); the mix of calls is not that of the screen. Calls come from the whole dose curve; as a rule, active = well fitted inhibition curve with a large enough effect; inconclusive = small, poorly fitted or top-dose-only effect; inactive = no such curve, though single readings can be large or run the other way. A potency beside an inconclusive call is a rough fit, not a confirmed value.

These molecules were tested against Sphingomyelin phosphodiesterase (Homo sapiens) (UniProt P17405) (assay: Inhibitors of Secretory Acid Sphingomyelinase (S-ASM): qHTS). Conditions: placental ASM, HMU-PC fluorogenic substrate (series up to 57.5 µM), 60 min.
Chain of UniProt P17405 (P17405 whole entry, looked up): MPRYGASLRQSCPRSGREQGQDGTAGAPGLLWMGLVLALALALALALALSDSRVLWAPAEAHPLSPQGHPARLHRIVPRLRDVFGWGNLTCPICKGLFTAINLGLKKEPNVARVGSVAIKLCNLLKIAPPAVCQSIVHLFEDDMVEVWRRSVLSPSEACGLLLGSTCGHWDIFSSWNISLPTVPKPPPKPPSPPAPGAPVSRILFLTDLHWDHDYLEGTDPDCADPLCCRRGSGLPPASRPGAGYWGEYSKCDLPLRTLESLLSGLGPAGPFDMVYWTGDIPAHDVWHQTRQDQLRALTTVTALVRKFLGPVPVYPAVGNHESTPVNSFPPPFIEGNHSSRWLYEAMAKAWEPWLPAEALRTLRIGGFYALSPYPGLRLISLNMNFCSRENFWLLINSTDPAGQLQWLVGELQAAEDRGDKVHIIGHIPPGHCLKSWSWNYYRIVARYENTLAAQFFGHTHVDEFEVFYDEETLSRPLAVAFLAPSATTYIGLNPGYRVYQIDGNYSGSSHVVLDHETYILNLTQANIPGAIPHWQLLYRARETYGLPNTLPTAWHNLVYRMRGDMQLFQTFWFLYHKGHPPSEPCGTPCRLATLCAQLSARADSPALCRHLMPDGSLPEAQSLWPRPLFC
Outline: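 Steps: dispense placental human ASM, pin compound, wait 10 min at room temperature, add HMU-PC0 substrate at 9 uM final, incubate 60 min at 37 °C, add stop solution raising pH to 10, read fluorescence.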
Potency is the fitted concentration of half-maximal effect; tags give direction and shape of the fitted curve.

| SMILES | Potency |
| --- | --- |
| Cc1ccc(NC(=O)c2ccc(Nc3c([N+](=O)[O-])cc([N+](=O)[O-])cc3[N+](=O)[O-])cc2)cc1 | inconclusive: 100 µM [inhibitor, partial curve, poor fit] |
| CCOc1ccc(CNC(=S)N/N=C\c2ccc([N+](=O)[O-])cc2)cc1 | inconclusive: 251 µM [inhibitor, partial curve, poor fit] |
| C[C@H](CO)N1C[C@H](C)[C@@H](CN(C)C(=O)Nc2ccc3c(c2)OCO3)Oc2c(NC(=O)Nc3ccc(C(F)(F)F)cc3)cccc2C1=O | inconclusive: 79.4 µM [inhibitor, partial curve] |
| CN(C)C=NC(=O)c1ccc(N2CCN(c3ncc(C(F)(F)F)cc3Cl)CC2)cc1 | inactive |
| N#C/C(=C\c1c[nH]c2ccc(Br)cc12)c1ccccn1 | inactive |
| CCOC(=O)CSc1nc2ccc(Nc3nc(N4CCOCC4)nc(N4CCOCC4)n3)cc2s1 | inconclusive: 126 µM [inhibitor, partial curve, poor fit] |
| O=C(CCc1ccccc1O)N/N=C/c1ccc(Sc2cccc3cccnc23)o1 | inconclusive: 89.1 µM [inhibitor, single point] |
| COc1ccc(N=C2NC(=O)/C(=C\C=C\c3ccccc3)S2)cc1 | inconclusive: 282 µM [inhibitor, partial curve, poor fit] |
| O=C1C(C=Nc2ccccc2O)=C(O)c2ccccc21 | inconclusive: 17.8 µM [inhibitor, single point] |
| CCCc1ccc(Oc2cn[nH]c2-c2ccc(O)c(C)c2O)cc1 | inconclusive: 89.1 µM [inhibitor, single point] |
| CC1(C)CC(=O)C2=C(C1)NC1=C(C(=O)c3ccccc31)C2c1cc([N+](=O)[O-])ccc1O (centres undefined) | inconclusive: 126 µM [inhibitor, partial curve, poor fit] |
| CCn1cc(C(=O)NCc2ccc(Cl)cc2)c(=O)c2cc(S(=O)(=O)N3CCOCC3)ccc21 | inconclusive: 316 µM [inhibitor, partial curve, poor fit] |
| CCc1cccc(Nc2c([N+](=O)[O-])cc(C(=O)N3CC(=O)Nc4ccccc43)cc2[N+](=O)[O-])c1 | inconclusive: 178 µM [inhibitor, partial curve, poor fit] |
| CCC(C)NC(=O)CSc1nc2cc3c(cc2c(=O)n1Cc1ccco1)OCO3 (centres undefined) | inactive |
| Oc1[nH]c2ccc(Br)cc2c1N=Nc1ccc(C(F)(F)F)cn1 | inconclusive: 112 µM [inhibitor, partial curve, poor fit] |
| NC1C=CC=C(C(=O)O)C1 (centres undefined) | inactive |
| Cc1[nH]c2ccccc2c1N=Nc1ccccc1F | inconclusive: 200 µM [inhibitor, partial curve, poor fit] |
| COC(=O)C1OC(OC2CC[C@]3(C)C(CC[C@@]4(C)[C@@H]3CC=C3[C@@H]5CC(C)(C)CC[C@]5(C(=O)OC5OC(CO)C(O)C(O)C5O)CC[C@]34C)C2(C)C)C(O)C(O)C1O[C@H]1OCC(O)C(O)C1O (some centres undefined) | inconclusive: 112 µM [inhibitor, partial curve, poor fit] |
| CCn1c(=S)sc2c(=O)n(CC(=O)Nc3ccccc3OC)c(C)nc21 | inconclusive: 224 µM [inhibitor, partial curve, poor fit] |
| Cc1ccc(NS(=O)(=O)c2cc(NC(=O)c3ccc4c(c3)NC(=O)CS4)ccc2C)c(C)c1 | inconclusive: 126 µM [inhibitor, partial curve, poor fit] |

| SMILES | Potency |
| --- | --- |
| COc1ccc(-n2c(=S)[nH]c3cc(C(=O)NCc4cccnc4)ccc3c2=O)cc1 | inconclusive: 50.1 µM [inhibitor, partial curve, poor fit] |
| CCOC(=O)c1nn(-c2ccc(F)cc2)c(=O)cc1OCC(=O)N1CCN(c2ccccc2)CC1 | inactive |
| CC(=O)Nc1cccc(C(=O)OC(C(=O)c2ccc(C)cc2)c2ccccc2)c1 (centres undefined) | inconclusive: 112 µM [inhibitor, partial curve, poor fit] |
| COc1ccccc1NC(=O)CSc1nc2c(oc3ccccc32)c(=O)n1C | inconclusive: 112 µM [inhibitor, partial curve, poor fit] |
| CC(C)(C)C1=CC(O)(c2ccccc2)C=C(C(C)(C)C)C1=O | inconclusive: 224 µM [inhibitor, partial curve, poor fit] |
| OCCNCc1cc(Br)ccc1OCc1ccccc1 | inactive |
| CCN1CCN(C(=O)c2[nH]c3ccc(OC)cc3c2C)CC1 | inactive |
| CCc1ccc(/C=C2\SC(=S)N(CCCC(=O)Nc3ccccc3C(=O)O)C2=O)cc1 | inactive |
| CC(C)COc1ccc(C(=O)Nc2ccccc2[N+](=O)[O-])cc1 | inactive |
| COc1ccc(N=C2SC(CC(=O)Nc3ccc(F)cc3)C(=O)N2Cc2ccco2)cc1 (centres undefined) | inconclusive: 100 µM [inhibitor, single point] |
| COC(=O)c1ccc(Oc2nc(Nc3ccc(C)c(C)c3)nc(N(C)C)n2)cc1 | inconclusive: 63.1 µM [inhibitor, partial curve, poor fit] |
| COc1cccc(N=C2SC(C(=O)Nc3ccccc3F)CC(=O)N2C)c1 (centres undefined) | inconclusive: 501 µM [inhibitor, partial curve, poor fit] |
| CC(C)C[C@H]1CNC(=S)N1CC1CCCN1C[C@H](CC(C)C)N1C[C@H](Cc2ccc(O)cc2)N(CC2CCCCC2)C1=S (some centres undefined) | inconclusive: 89.1 µM [inhibitor, single point] |
| CCOC(=O)c1c(-c2ccccc2)csc1NC(=O)/C(C#N)=C\c1ccc(O)c(OC)c1 | inconclusive: 178 µM [inhibitor, partial curve, poor fit] |
| CCn1c(CSc2ncccn2)nnc1SCC(=O)N1CCCCC1 | inactive |
| CCOC(=O)C1(CCOC)CCN(Cc2cccc(OCc3ccccc3)c2)CC1 | inactive |
| Cc1cccc(NC2=Nc3ccccc3N3C2=Nc2c(c(C)nn2-c2ccccc2)C3c2ccc(O)c(O)c2)c1 (centres undefined) | inactive |
| O=C(OCC(=O)N1CCN(C(=O)c2ccco2)CC1)c1sc2cc(F)ccc2c1Cl | inconclusive: 224 µM [inhibitor, partial curve, poor fit] |
| CCCCNC(=O)c1cn(-c2ccc(OCC)cc2)c(=O)c2cc(OC)c(OC)cc12 | inconclusive: 112 µM [inhibitor, partial curve, poor fit] |
| O=C(N/N=C/c1ccc(O)c(O)c1O)/C(=C/c1ccc([N+](=O)[O-])cc1)NC(=O)c1ccccc1 | inconclusive: 631 µM [inhibitor, partial curve, poor fit] |

| SMILES | Potency |
| --- | --- |
| CC(C)N(C(=O)[C@H]1C[C@H](CC(=O)NCC23CC4CC(CC(C4)C2)C3)C(=O)N2CCc3c([nH]c4cc(-c5ccco5)ccc34)[C@]12C)C(C)C | inconclusive: 158 µM [inhibitor, partial curve, poor fit] |
| Cc1ccc(-c2cc(N)n(-c3ccc(C)cc3)n2)cc1 | inactive |
| CCOc1ccc(N(CC(=O)N/N=C(\C)c2cccc(NC(C)=O)c2)S(=O)(=O)c2ccccc2)cc1 | inconclusive: 355 µM [inhibitor, partial curve, poor fit] |
| CN(Cc1ccc(Cl)cc1)C(=O)c1ccc2ccccc2n1 | inconclusive: 282 µM [inhibitor, partial curve, poor fit] |
| O=C(Nc1nccs1)c1ccc(S(=O)(=O)NCC2CCCCC2)cc1 | inconclusive: 224 µM [inhibitor, partial curve, poor fit] |
| CCCCCc1ccc(-c2ccc(=O)[nH]n2)cc1 | inconclusive: 89.1 µM [inhibitor, single point] |
| O=C(CNC(c1ccccc1)c1ccccc1)Nc1ccccc1-c1ccccc1 | inactive |
| Cc1ccc(NC(=O)CSc2nnc(Cn3cnc4ccccc43)o2)cc1 | inconclusive: 89.1 µM [inhibitor, partial curve] |
| COc1cc(/C=N/Nc2ccc(Cl)c(C(=O)O)c2)ccc1OC(=O)c1ccco1 | inconclusive: 89.1 µM [inhibitor, partial curve, poor fit] |
| COc1ccc(/C=N/NC(=O)c2[nH]c3ccc(Cl)cc3c2-c2ccccc2)c(C(=O)O)c1OC | active: 14.1 µM |
| COc1ccc(NC(=O)c2cc(-c3ccccc3)nc3c2cnn3C(C)C)c(OC)c1 | inconclusive: 100 µM [inhibitor, partial curve, poor fit] |
| CCn1c2ccccc2c2nn(C)c(=N)nc21 | inconclusive: 794 µM [inhibitor, partial curve, poor fit] |
| CCn1ncc(/C=N\NC(=O)c2ccc3c(c2)c(C)c(C)n3Cc2ccccc2)c1C | inconclusive: 200 µM [inhibitor, partial curve, poor fit] |
| O=C(NCCCN1CCOCC1)c1cc2c([nH]c3ccccc32)c(-c2cccc(Br)c2)n1 | inactive |
| Cc1ccc(-c2nnc3n2N=C(c2ccccc2Br)CS3)cc1 | inconclusive: 79.4 µM [inhibitor, single point] |
| CC(C)(C)NC(=O)CSc1nc2ccc(Nc3nc(N4CCOCC4)nc(N4CCOCC4)n3)cc2s1 | inconclusive: 89.1 µM [inhibitor, partial curve, poor fit] |
| COc1ccc(NC(=O)c2cc(-c3ccccc3)on2)cc1 | inactive |
| CCOC(=O)C1=C(c2ccccc2)NC(N)=NC1c1ccc(OCc2ccc(C(=O)OC)cc2)cc1 (centres undefined) | inconclusive: 200 µM [inhibitor, partial curve, poor fit] |
| S=c1[nH]nc(SCc2ccccc2)c2[nH]cnc12 | inconclusive: 89.1 µM [inhibitor, single point] |
